Experimental data published in paper PMC9911399, “Two distinct binding modes provide the RNA-binding protein RbFox with extraordinary sequence specificity”.
Substitutions are numbered along the chain they refer to; changes in the protein carry UniProt numbers. This is one part of the list.

T1: RBFOX1 RRM (Homo sapiens, UniProt Q9NWB1 109-208)
T1 sequence: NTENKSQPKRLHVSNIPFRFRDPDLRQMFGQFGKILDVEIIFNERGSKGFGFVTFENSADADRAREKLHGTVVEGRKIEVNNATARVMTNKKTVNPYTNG

B1: AAUCACC (DNA:RNA)
RNA: GGGAGACCGGAAUUCAGAUUGUCCAAUCACCUUAAAUCCCGUCGUAGCCACCA
DNA 1: CAATCTGAATTCCGGTCTCCC
DNA 2: TGGTGGCTACGACGGGATT
B2: UGUGGGG (DNA:RNA)
RNA: B1 RNA with A25U, A26G, C28G, A29G, C30G, C31G
DNA 1: CAATCTGAATTCCGGTCTCCC
DNA 2: TGGTGGCTACGACGGGATT
B3: CACGUCG (DNA:RNA)
RNA: B1 RNA with A25C, U27C, C28G, A29U, C31G
DNA 1: CAATCTGAATTCCGGTCTCCC
DNA 2: TGGTGGCTACGACGGGATT
B4: UCGAAUC (DNA:RNA)
RNA: B1 RNA with A25U, A26C, U27G, C28A, C30U
DNA 1: CAATCTGAATTCCGGTCTCCC
DNA 2: TGGTGGCTACGACGGGATT
B5: UCUCCUG (DNA:RNA)
RNA: B1 RNA with A25U, A26C, A29C, C30U, C31G
DNA 1: CAATCTGAATTCCGGTCTCCC
DNA 2: TGGTGGCTACGACGGGATT
B6: GAUUGCC (DNA:RNA)
RNA: B1 RNA with A25G, C28U, A29G
DNA 1: CAATCTGAATTCCGGTCTCCC
DNA 2: TGGTGGCTACGACGGGATT
B7: UCUCAUU (DNA:RNA)
RNA: B1 RNA with A25U, A26C, C30U, C31U
DNA 1: CAATCTGAATTCCGGTCTCCC
DNA 2: TGGTGGCTACGACGGGATT
B8: GUUACAC (DNA:RNA)
RNA: B1 RNA with A25G, A26U, C28A, A29C, C30A
DNA 1: CAATCTGAATTCCGGTCTCCC
DNA 2: TGGTGGCTACGACGGGATT
B9: AAUCCGA (DNA:RNA)
RNA: B1 RNA with A29C, C30G, C31A
DNA 1: CAATCTGAATTCCGGTCTCCC
DNA 2: TGGTGGCTACGACGGGATT
B10: CGUCCCC (DNA:RNA)
RNA: B1 RNA with A25C, A26G, A29C
DNA 1: CAATCTGAATTCCGGTCTCCC
DNA 2: TGGTGGCTACGACGGGATT
B11: GAAAUCA (DNA:RNA)
RNA: B1 RNA with A25G, U27A, C28A, A29U, C31A
DNA 1: CAATCTGAATTCCGGTCTCCC
DNA 2: TGGTGGCTACGACGGGATT
B12: UUCCACG (DNA:RNA)
RNA: B1 RNA with A25U, A26U, U27C, C31G
DNA 1: CAATCTGAATTCCGGTCTCCC
DNA 2: TGGTGGCTACGACGGGATT
B13: CUCUCUG (DNA:RNA)
RNA: GGGAGACCGGAAUUCAGAUUGUCCCUCUCUGUUAAAUCCCGUCGUAGCCACCA
DNA 1: CAATCTGAATTCCGGTCTCCC
DNA 2: TGGTGGCTACGACGGGATT
B14: AUAGUGG (DNA:RNA)
RNA: B13 RNA with C25A, C27A, U28G, C29U, U30G
DNA 1: CAATCTGAATTCCGGTCTCCC
DNA 2: TGGTGGCTACGACGGGATT
B15: UGCAACC (DNA:RNA)
RNA: B1 RNA with A25U, A26G, U27C, C28A
DNA 1: CAATCTGAATTCCGGTCTCCC
DNA 2: TGGTGGCTACGACGGGATT
B16: UUGGUCA (DNA:RNA)
RNA: B1 RNA with A25U, A26U, U27G, C28G, A29U, C31A
DNA 1: CAATCTGAATTCCGGTCTCCC
DNA 2: TGGTGGCTACGACGGGATT
B17: GCGGUCG (DNA:RNA)
RNA: B1 RNA with A25G, A26C, U27G, C28G, A29U, C31G
DNA 1: CAATCTGAATTCCGGTCTCCC
DNA 2: TGGTGGCTACGACGGGATT
B18: UAAGGUC (DNA:RNA)
RNA: B1 RNA with A25U, U27A, C28G, A29G, C30U
DNA 1: CAATCTGAATTCCGGTCTCCC
DNA 2: TGGTGGCTACGACGGGATT
B19: CGUAAGA (DNA:RNA)
RNA: B1 RNA with A25C, A26G, C28A, C30G, C31A
DNA 1: CAATCTGAATTCCGGTCTCCC
DNA 2: TGGTGGCTACGACGGGATT
B20: GUUUACA (DNA:RNA)
RNA: B1 RNA with A25G, A26U, C28U, C31A
DNA 1: CAATCTGAATTCCGGTCTCCC
DNA 2: TGGTGGCTACGACGGGATT

Target: T1, RBFOX1 RRM
Assay: EMSA; HiTS-Eq, 1 nM pool, 10 min; buffer printed only for the single-RNA assays: 10 mM Tris pH 7.5, 150 mM NaCl, 3.4 mM EDTA, 0.001% NP-40, 30 C
Settings: tags: His6 N-terminal (pET28a); label: 5' 32P
Method in brief: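 Purified RbFox RRM, wild type or mutant, was incubated for 10 min in 50 µL with 1 nM of a 5′-radiolabelled RNA pool carrying 7 randomized nucleotides, whose flanks were annealed to DNA oligonucleotides, over a series of increasing protein concentrations. Unbound RNA was resolved on 8% native PAGE, cut out, reverse-transcribed, barcoded by PCR and sequenced on an Illumina HiSeq 2500. Relative association constants were derived from changes in read counts for each RNA species versus the control reaction and normalised to the cognate motif.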

Row | Binder | binding signal
1 | B1 | 0.00159 KA relative to UGCAUGU
2 | B2 | 0.0122 KA relative to UGCAUGU
3 | B3 | 0.00524 KA relative to UGCAUGU
4 | B4 | 0.0109 KA relative to UGCAUGU
5 | B5 | 0.0131 KA relative to UGCAUGU
6 | B6 | 0.0181 KA relative to UGCAUGU
7 | B7 | 0.00456 KA relative to UGCAUGU
8 | B8 | 0.00626 KA relative to UGCAUGU
9 | B9 | 0.00338 KA relative to UGCAUGU
10 | B10 | 0.00217 KA relative to UGCAUGU
11 | B11 | 0.00653 KA relative to UGCAUGU
12 | B12 | 0.00321 KA relative to UGCAUGU
13 | B13 | 0.0137 KA relative to UGCAUGU
14 | B14 | 0.007 KA relative to UGCAUGU
15 | B15 | 0.0185 KA relative to UGCAUGU
16 | B16 | 0.0152 KA relative to UGCAUGU
17 | B17 | 0.0188 KA relative to UGCAUGU
18 | B18 | 0.0168 KA relative to UGCAUGU
19 | B19 | 0.00668 KA relative to UGCAUGU
20 | B20 | 0.00515 KA relative to UGCAUGU
